From PubChem BioAssay AID504832 (National Center for Advancing Translational Sciences (NCATS), 2011)
The campaign covered roughly 310,000 compounds. About 18,000 (5.8%) were called active. The shares of active, inactive and inconclusive entries below differ from those in the screen. Calls come from the whole dose curve; as a rule, active = well fitted inhibition curve with a large enough effect; inconclusive = small, poorly fitted or top-dose-only effect, or another doubt; inactive = no such curve, though single readings can be large or run the other way. Potencies of inconclusive entries are left out as doubtful fits.

Assay: Primary qHTS for delayed death inhibitors of the malarial parasite plastid, 48 hour incubation
Conditions: P. falciparum luciferase growth in erythrocytes; series mostly up to 28.7 µM
Summary of the method: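 Luminescence readout; reporter = integrated firefly luciferase in P. falciparum. RBC culture at 2% hematocrit, 0.1% parasitemia final, 37 C/5% CO2; decreased signal taken as growth inhibition.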
% is set by controls: 0 for no effect and ±100 for the full control effect; potency is the fitted concentration of half-maximal effect; tags give direction and shape of the fitted curve.

SMILES | Potency | activity change, negative = inhibition
Cc1ccc(N=Cc2cc(Cl)cc(Cl)c2O)nc1 | inconclusive [inhibitor, single point] | 
Cc1c(O)ccc(-c2[nH]ncc2-c2nc3ccccc3s2)c1O | inactive | 
NC1=NC[C@@H](Cc2ccc(O)cc2)N1CCc1cccc2ccccc12 | active: 5.86 µM | 
Oc1ccc(/C=N/Nc2nc(N3CCCCCC3)nc(N3CCCCCC3)n2)c(O)c1 | inconclusive [inhibitor, full curve, poor fit] | 
CCCN1CCN(C(=O)CS(=O)(=O)Cc2nc(-c3cccc(OC)c3)oc2C)CC1 | inconclusive [inhibitor, full curve] | 
C/C=C/C(=O)OCC(=O)Nc1cccc(F)c1 | inconclusive [inhibitor, single point] | 
COc1ccc(C2=NCCn3nc4cc([N+](=O)[O-])ccc4c32)cc1 | inconclusive [inhibitor, single point] | 
Cc1ccc(/C=N/N2CCN(Cc3ccc(C)cc3)CC2)cc1 | inactive | 
Cc1ccc(OCc2ccc(C(=O)Nc3ccc(S(N)(=O)=O)cc3)o2)cc1 | inconclusive [inhibitor, single point] | 
O=S(=O)(Nc1ccccc1)c1ccc(S(=O)(=O)N2CCCC2)cc1 | inconclusive [inhibitor, single point] | 
CC(=O)c1ccc(NC(=O)c2cc3nc4c(c(C(F)(F)F)n3n2)CCCC4)cc1 | inconclusive [inhibitor, partial curve] | 
Cc1ccc(CC2SC(=Nc3ccccc3)N(c3ccccc3)C2=O)cc1 (centres undefined) | active: 10.4 µM | 
CC(=O)c1ccc(N2CCN(C(=O)COc3ccc(F)cc3)CC2)c(F)c1 | inconclusive [inhibitor, single point] | 
COc1ccc2nc3sc(C(=O)NCCN4CCc5ccccc5C4)cc3cc2c1 | active: 9.28 µM | 
O=C1CN(C(=O)c2ccc(Cl)c(S(=O)(=O)N3CCc4ccccc43)c2)c2ccccc2N1 | inconclusive [inhibitor, partial curve] | 
COc1ccc(NC(=O)c2ccc(NC(=O)CSc3nc(N)cc(=O)[nH]3)cc2)cc1 | inactive | 
Cc1ccc(NC(=O)c2cccs2)cc1S(=O)(=O)N(C)C | inactive | 
Cc1onc(-c2ccccc2Cl)c1C(=O)Nc1sc2c(c1C#N)CCC2 | inconclusive [inhibitor, single point] | 
CC(C)[n+]1ccn(C2=C([O-])c3ccccc3C(=O)/C2=N\S(=O)(=O)c2ccccc2)c1 | active: 6.57 µM | 
CC1CN(S(=O)(=O)c2cccc(C(=O)N(Cc3nnc(-c4ccccc4Cl)o3)C3CC3)c2)CC(C)O1 (centres undefined) | inconclusive [inhibitor, single point] | 
CCOc1ccc(OCC)c(S(=O)(=O)NCCOC23CC4CC(CC(C4)C2)C3)c1 | inconclusive [inhibitor, single point] | 
CCC(=O)c1ccc(OCC(=O)Nc2cc(S(=O)(=O)N3CCCCC3)ccc2OC)cc1 | inconclusive [inhibitor, partial curve, poor fit] | 

SMILES | Potency | activity change, negative = inhibition
CCc1ccc(Nc2nc(N)nc(CSc3nc4ccccc4s3)n2)cc1 | inactive | 
C=CCc1cccc(/C=N/NC(=O)c2ccccc2OC)c1O | inconclusive [inhibitor, partial curve] | 
COc1ccc(C(=O)/C=C/c2ccsc2)cc1CSCC(=O)O | inconclusive [inhibitor, single point] | 
CC1(C)Cc2nc3nc(SCC(=O)NCCc4ccccc4)n(-c4ccccc4)c(=O)c3cc2CO1 | inconclusive [inhibitor, single point] | 
Cc1ccc(-c2cc(C(F)(F)F)n3ncc(C(=O)N4CCCCC4c4cccnc4)c3n2)cc1 (centres undefined) | active: 1.65 µM | 
CC(C)NS(=O)(=O)c1ccc(OCC(=O)Nc2ccc3c(c2)OCCO3)cc1 | inconclusive [inhibitor, partial curve, poor fit] | 
CCCn1c(N)c(Sc2ccccc2[N+](=O)[O-])c(=O)n(CCC)c1=O | inconclusive [inhibitor, single point] | 
O=C(NNC(=O)c1cc(O)c(O)c(O)c1)NC1CCCCC1 | inconclusive [inhibitor, single point] | 
Cc1cccc(N2CCN(C(=O)CCn3c(=O)[nH]c4ccccc4c3=O)CC2)c1C | inconclusive [inhibitor, partial curve, poor fit] | 
COC(C[C@@H](O)CC(=O)COCc1ccccc1)OC | inactive | 
CCCCn1c(N)c(N(CCC(C)C)C(=O)CC2CCCC2)c(=O)[nH]c1=O | inactive | 
Cc1nc(C(=O)NCCO)cc2c1[nH]c1ccccc12 |  | inactive: 2.15% [at 0.00184 µM]
CCCCCCCCSc1nnc(CSc2nc3nc(C)cc(C)n3n2)o1 | active: 11.7 µM | 
COc1ccc(CCNC(=O)CCN2C(=O)[C@@H]3Cc4ccccc4CN3C2=O)cc1OC | inactive | 
CCN(CC)C(=O)N[C@@H]1C[C@@H]2c3cccc4[nH]cc(c34)C[C@H]2N(C)C1 | inconclusive [inhibitor, partial curve] | 
Cc1nc(C(F)(F)F)ccc1C(=O)Nc1ccc2ccccc2n1 | inactive | 
CN(C)S(=O)(=O)c1ccc(NC(=O)c2c(F)cccc2Cl)cc1 | inactive | 
N#CC1=C(N)N(c2ccccc2)C(c2cccc([N+](=O)[O-])c2)C1(C#N)C#N (centres undefined) | inconclusive [inhibitor, partial curve] | 
COC(=O)c1cc(C(=O)Cc2ccccc2)c[nH]1 | inconclusive [inhibitor, single point] | 
Cc1ccccc1CS(=O)(=O)c1ncc(Cl)c(C(=O)Nc2ccc(F)cc2)n1 | inactive | 
COc1ccc(C(=O)N/N=C/c2ccc(OC)c(COc3ccc(F)cc3)c2)cc1 | inconclusive [inhibitor, partial curve, poor fit] | 
Cc1ccc(S(=O)(=O)Cc2ccc(C(=O)NC3CCCCCC3)o2)cc1 | inactive | 
